Measured values taken from publication PMC4336329 (PLoS ONE, 2015).
In all, about 310,000 compounds went through this assay and about 14,000 (4.5%) showed an effect of 50% or more. The effect is printed as a negative number. This is one part of the list.

molecular target: human ether-à-go-go-related gene (hERG) potassium channel (human, UniProt Q12809); assay: primary screen, population patch clamp on CHO cells stably expressing hERG
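Note: peak tail current of the secondary pulse compared with the same well before compound.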

human ether-à-go-go-related gene (hERG) potassium channel, sequence (Q12809 whole entry, looked up): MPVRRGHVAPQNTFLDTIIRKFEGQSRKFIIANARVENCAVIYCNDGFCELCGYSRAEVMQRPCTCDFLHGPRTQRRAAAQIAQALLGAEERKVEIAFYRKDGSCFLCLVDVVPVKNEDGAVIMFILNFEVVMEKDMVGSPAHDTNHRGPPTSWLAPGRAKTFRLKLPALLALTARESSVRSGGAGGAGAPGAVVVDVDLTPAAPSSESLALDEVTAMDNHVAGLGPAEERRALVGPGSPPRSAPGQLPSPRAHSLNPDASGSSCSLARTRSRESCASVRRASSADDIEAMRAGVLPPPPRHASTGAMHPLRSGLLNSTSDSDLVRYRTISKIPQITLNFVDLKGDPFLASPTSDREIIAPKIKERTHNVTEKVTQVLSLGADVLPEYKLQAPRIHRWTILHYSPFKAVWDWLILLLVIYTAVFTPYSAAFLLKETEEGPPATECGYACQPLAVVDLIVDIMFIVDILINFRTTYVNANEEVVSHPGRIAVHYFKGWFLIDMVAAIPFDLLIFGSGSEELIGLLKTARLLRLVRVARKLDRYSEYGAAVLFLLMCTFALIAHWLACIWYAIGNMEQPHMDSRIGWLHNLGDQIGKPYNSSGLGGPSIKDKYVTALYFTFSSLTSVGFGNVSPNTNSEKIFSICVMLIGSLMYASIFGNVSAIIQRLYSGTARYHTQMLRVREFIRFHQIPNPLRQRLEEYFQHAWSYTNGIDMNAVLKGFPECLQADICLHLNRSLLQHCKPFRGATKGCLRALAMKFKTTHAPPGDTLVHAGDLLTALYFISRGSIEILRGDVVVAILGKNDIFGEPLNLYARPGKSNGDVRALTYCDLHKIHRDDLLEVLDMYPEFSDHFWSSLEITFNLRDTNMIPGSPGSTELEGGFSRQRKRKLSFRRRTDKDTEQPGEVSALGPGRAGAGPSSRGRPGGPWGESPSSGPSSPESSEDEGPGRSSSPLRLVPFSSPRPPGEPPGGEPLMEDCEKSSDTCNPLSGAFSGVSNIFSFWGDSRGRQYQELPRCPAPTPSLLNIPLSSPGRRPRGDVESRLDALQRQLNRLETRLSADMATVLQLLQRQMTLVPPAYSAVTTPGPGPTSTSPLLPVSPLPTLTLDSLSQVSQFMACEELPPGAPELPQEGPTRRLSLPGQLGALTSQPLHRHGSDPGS

Row | SMILES | hERG current change (%, negative = inhibition) at 10uM [%]
1 | C/C(=N\NS(=O)(=O)c1ccc(C)c([N+](=O)[O-])c1)c1cc2ccccc2o1 | -9.98
2 | COc1ccc(/C=C/C(=O)Nc2ccc(OC)cc2[N+](=O)[O-])cc1 | -5.97
3 | C=CCNC(=O)C1CC(=O)N(c2ccc(C)cc2)C1 (stereo not drawn) | -16.1
4 | Cc1ccc(C(=O)N2CCCC(C(=O)c3ccc(Oc4ccccc4)cc3)C2)cn1 (stereo not drawn) | -41
5 | O=C1Nc2ccc(F)cc2C12Nc1ccccc1-c1nnc(SCc3ccccc3)nc1O2 (stereo not drawn) | -13.2
6 | CC(=O)Nc1ccc(NS(=O)(=O)c2c(Cl)cccc2Cl)cc1 | -5.6
7 | COc1ccc(CCNC(=O)Cc2cc(OC)c(OC)cc2[N+](=O)[O-])cc1OC | 3.56
8 | CCOc1ccc(C(CC(=O)O)NS(=O)(=O)c2ccc(C)cc2)cc1OC (stereo not drawn) | 10.3
9 | CSCCC(NC(=O)COc1ccccc1)C(=O)OC(C)C(=O)Nc1ccccc1C (stereo not drawn) | -8.61
10 | Clc1ccc(CN2CCCCCCC2)cc1 | -33.1
11 | CN(C)CC/C=C1/c2ccc(F)cc2Sc2ccc(Cl)cc21.Cl | 5.06
12 | Cn1cccc1C(=O)NNC(=O)COc1ccccc1Cl | 1.72
13 | CC(C)SCCCCOc1ccc2ccccc2c1 | -9.37
14 | CC1C/C(=N/NC(=O)c2ccc(CSc3nc4ccccc4[nH]3)cc2)CC(C)(C)C1 (stereo not drawn) | 10.4
15 | CC(NC(=O)c1cccs1)C(c1cccs1)N1CCN(Cc2ccccc2)CC1 (stereo not drawn) | -72.7
16 | Cc1ccc(C2CC(c3ccccc3)=NN2C(=O)CSc2nnc(-c3ccncc3)n2C)o1 (stereo not drawn) | -13.2
17 | O=C(Nc1nnc(CCc2ccccc2)s1)C1CCCO1 (stereo not drawn) | -12.7
18 | O=C(NC(=O)N1CCN(C(c2ccccc2)c2ccccc2)CC1)c1ccccc1 | -4.96
19 | CCOC(=O)c1cc(-c2csc(-c3ccc(C(C)(C)C)cc3)n2)on1 | 21.5
20 | Cc1ccc(C(C#N)c2ccc(C(=O)c3ccc(F)cc3)cc2)cc1 (stereo not drawn) | -1.77
21 | C[N+]1(CCn2ccc3ccccc32)CCCCC1.[I-] | 18.3

Row | SMILES | hERG current change (%, negative = inhibition) at 10uM [%]
22 | S=C1NCCNC(=S)NCCOCCOCCOCCN1 | 15.2
23 | O=C(N/N=C/c1ccccn1)c1cc(-c2cccc3ccccc23)n[nH]1 | -18.3
24 | Cn1cnc([N+](=O)[O-])c1Sc1ncn[nH]1 | 21
25 | CC1CCCC(C)N1C(=O)CSc1ncccn1 (stereo not drawn) | 19.6
26 | O=C1CN(C(=O)COC(=O)/C=C/c2ccc(S(=O)(=O)N3CCOCC3)cc2)c2ccccc2N1 | 13.2
27 | O=C(Nc1ccccc1C(=O)NC(Cc1c[nH]c2ccccc12)C(=O)O)c1ccco1 (stereo not drawn) | -6.2
28 | COC(=O)c1sc(NC(=S)NC(=O)c2ccccc2Cl)nc1C | 11.1
29 | COCC(=O)N1CCC(Oc2ccc(C(=O)NCc3cc(C)no3)cc2)CC1 | 1.51
30 | COc1ccc(OC)c(CC(NC(C)=O)C(=O)NC2CCN(c3c(Cc4ccccc4)c(C)nc4ncnn34)CC2)c1 (stereo not drawn) | -17
31 | CCOc1cc(CNCCc2ccc(S(N)(=O)=O)cc2)ccc1OCC(=O)NC1CCCCC1.Cl | -36.3
32 | O=C(CCCCCn1c(=S)[nH]c2ccc(N3CCOCC3)cc2c1=O)NCc1ccc(Cl)cc1 | 15.7
33 | CCCC(=O)NNc1cc(=O)c2c(=O)n(C)c(=O)n(C)c2[nH]1 | 4.42
34 | COCCOC(=O)c1[nH]c2c(c1C)C(=O)C(C(=O)OC)C(C)C2 (stereo not drawn) | -4.76
35 | O=C(CSc1nnc(NC(=O)c2ccco2)s1)Nc1ccc2c(c1)OCCO2 | 24.7
36 | CSc1ncccc1C(=O)OCC(=O)c1cc(C)n(CC2CCCO2)c1C (stereo not drawn) | -35.5
37 | CC(=O)Oc1ccc(/C=N/NS(=O)(=O)c2ccc(C)cc2)c(OC(C)=O)c1 | 9.58
38 | O=C(NC1CCCC1)C(c1ccsc1)N(C(=O)Cc1cccs1)c1cccc(F)c1 (stereo not drawn) | 24.7
39 | Cc1[nH]c2ccccc2c1C(=O)C(=O)N1CCCc2ccccc21 | -10.6
40 | CC(=O)N1CCc2cc(C(=O)CN3CCCCC3)ccc21 | 6.69
41 | COc1cccc(N(C(=O)C2CSC(=O)C2)C(C(=O)NC(C)(C)C)c2ccncc2)c1 (stereo not drawn) | 55.5
42 | O=C(CSCc1ccc(F)cc1)N1CCN(c2ccc(F)cc2)CC1 | -41.8
